{"source": "the supplement of paper PMC11417369", "note": "± gives the standard deviation of the averaged measurements. Some of the results follow.", "data": [{"tested_on": "PfAP2-G AP2 domain (GST-tagged)", "test": "gcPBM binding intensity (ln(normalized median fluorescence intensity)); higher = stronger DNA binding", "outline": "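The binding buffer was 1× PBS containing 1% milk, 0.2 mg/ml BSA, 0.5% salmon testes DNA and 0.03% Triton X-100. In it, GST-tagged P. falciparum DNA-binding domains expressed in E. coli were applied for 1 h to an Agilent 4 × 180k array of primer-extended double-stranded 36-bp intergenic genomic probes plus negative controls. Binding intensity, read with Alexa488 anti-GST antibody and a 488 nm scan, is the highest Masliner-normalised natural-log median intensity across replicate spots of either probe orientation.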", "values": [{"sequence": "TATATAGCATATTTCACACACACATAATGAATATTA [CACACA_site3546]", "gcPBM binding intensity (ln)": "9.91 ± 0.16"}, {"sequence": "ATGATATACGTAAACACACAAATAAAAAAAATTTAT [CACACA_site7544]", "gcPBM binding intensity (ln)": "10.3 ± 0.3"}, {"sequence": "AATATATTTTCCTGCAAACACACATATAAATGTGTA [CACACA_site532]", "gcPBM binding intensity (ln)": "9.865 ± 0.064"}, {"sequence": "TATCAAATGTATATATGTACTTATATTTTTTTTATA [XGTACX_site1501]", "gcPBM binding intensity (ln)": "11.2 ± 0.74"}, {"sequence": "ATGCTCAAAAGATATGCATGTACAAATATATGAAAT [TGCATGCA_site592]", "gcPBM binding intensity (ln)": "10.6 ± 0.35"}, {"sequence": "TATATTACAAAAAGTACACACATAAATAAATACATA [CACACA_site975]", "gcPBM binding intensity (ln)": "11.5 ± 1.1"}, {"sequence": "ATGATGTCTTTATATTGTACATATATGAAGACGTTA [XGTACX_site7751]", "gcPBM binding intensity (ln)": "11 ± 0.65"}, {"sequence": "ACATACATACACCCACGTACGTACCGAAACACCACC [XGTACX_site1212]", "gcPBM binding intensity (ln)": "11.7 ± 1.1"}, {"sequence": "GATATAATGTGTTTGGTATTCTTGATAGATAGTTTT [CACACA_negctrl_site1711]", "gcPBM binding intensity (ln)": "9.91 ± 0.13"}, {"sequence": "TTTCGTAAAATGAAATGTACTCAAAAGTAAATATAA [XGTACX_site214]", "gcPBM binding intensity (ln)": "11.2 ± 0.86"}, {"sequence": "ACTTCAAAAATAAACTGTACGTAAAAAAAAAAAAAA [XGTACX_site795]", "gcPBM binding intensity (ln)": "11.5 ± 1"}, {"sequence": "TTTCTTTTTTTTTTTGTATATTAAATCTAAAAAGGA [TGCATGCA_negctrl_site431]", "gcPBM binding intensity (ln)": "9.8 ± 0.38"}, {"sequence": "TTTAAATAAAATATTACACACTTAGAAAAATATATA [CACACA_site3663]", "gcPBM binding intensity (ln)": "9.81 ± 0.12"}, {"sequence": "CTATCTACATAAACGTGTACCCACAAATAAATAAAT [XGTACX_site5210]", "gcPBM binding intensity (ln)": "11.4 ± 0.79"}, {"sequence": "TCATATGTATAAATTAGTACATATTTAATGGATATA [XGTACX_site3298]", "gcPBM binding intensity (ln)": "11.1 ± 0.71"}, {"sequence": "TTAACCTTTTGATATTGTACCCATAATCTAATACAA [XGTACX_site769]", "gcPBM binding intensity (ln)": "11.3 ± 0.77"}, {"sequence": "TTTTTTAAAAAAGTTTTCTGTATTTATATATATATA [CACACA_negctrl_site31]", "gcPBM binding intensity (ln)": "9.97 ± 0.28"}, {"sequence": "AAATGAAAATAAAGCAACAGAAATATAATGTATTAT [GTGCAC_negctrl_site508]", "gcPBM binding intensity (ln)": "10.06 ± 0.085"}, {"sequence": "TATGAATGGTTAAGTACACACATATTAATATATGTA [CACACA_site3490]", "gcPBM binding intensity (ln)": "11.3 ± 0.99"}, {"sequence": "TTATGTCATAAATGCACACATATATATATACATATA [CACACA_site1588]", "gcPBM binding intensity (ln)": "9.915 ± 0.064"}, {"sequence": "AGGCACGTGTTATATACACACATAATCAAATAAACT [CACACA_site7852]", "gcPBM binding intensity (ln)": "10 ± 0.11"}, {"sequence": "ACATTTTATACGATAAAATGTATAAGATTATGAAGA [TGCATGCA_negctrl_site476]", "gcPBM binding intensity (ln)": "10.01 ± 0.057"}, {"sequence": "AAAATAATAACATTGTGTACATAAAAAGAAAACCTT [XGTACX_site840]", "gcPBM binding intensity (ln)": "11.5 ± 0.91"}, {"sequence": "ATATATATATATACATGTACAAATGTATAACAAATG [XGTACX_site145]", "gcPBM binding intensity (ln)": "10.9 ± 0.4"}, {"sequence": "CACCCATAAATATACACACGCACAACACAAAATAAA [CACACA_site2903]", "gcPBM binding intensity (ln)": "10.4 ± 0.35"}, {"sequence": "AATCGTGTTCTGAATACACACTAATACAAATTTGTA [CACACA_site6058]", "gcPBM binding intensity (ln)": "10.2 ± 0.13"}, {"sequence": "AACAAAAATAATAATCAAATAAATAAATGAAAACAT [CACACA_negctrl_site456]", "gcPBM binding intensity (ln)": "9.71 ± 0.11"}, {"sequence": "AGAAAATTAAAAAGAACACACAAATATATATATAAT [CACACA_site5896]", "gcPBM binding intensity (ln)": "10.045 ± 0.007"}, {"sequence": "ATATTACAACATTTTATACACACGTGATTATTAATT [CACACA_site2877]", "gcPBM binding intensity (ln)": "10.2 ± 0.12"}, {"sequence": "AACATTTTAAAACAGACACACACCAAAAAAAAAAAA [CACACA_site257]", "gcPBM binding intensity (ln)": "10 ± 0.37"}, {"sequence": "TTTTTTTACAACATTACACACAAATATTCTGTGTTA [CACACA_site5957]", "gcPBM binding intensity (ln)": "10 ± 0.11"}, {"sequence": "GTTTATAAAATAAGAAGTACTTTATGAGAACCATAT [XGTACX_site5789]", "gcPBM binding intensity (ln)": "11.3 ± 0.71"}, {"sequence": "ATAAACAAGACGCAACAAAGTAGAAATTAAAAATAA [CACACA_negctrl_site345]", "gcPBM binding intensity (ln)": "9.97 ± 0.014"}, {"sequence": "AAAAATGGAATTATCTGTACATATATAGTTTTTAAA [XGTACX_site5580]", "gcPBM binding intensity (ln)": "11 ± 0.59"}, {"sequence": "CATCCTATTACTTGGTGTACTATTTTATATTGAATA [XGTACX_site1050]", "gcPBM binding intensity (ln)": "11.5 ± 0.97"}, {"sequence": "ATAAATTTATCCAAGTGTACAAAGCTAACATTTTTT [XGTACX_site4399]", "gcPBM binding intensity (ln)": "10.9 ± 0.57"}, {"sequence": "TTTTGAGTAGCCTATTGTACGAACTTTTTAAATACA [XGTACX_site1224]", "gcPBM binding intensity (ln)": "11.2 ± 0.93"}, {"sequence": "CCATTTTAAATATGCACACAGATGCACTAACACATT [CACACA_site5099]", "gcPBM binding intensity (ln)": "10.3 ± 0.26"}, {"sequence": "AATATATACGCATGCGCACACACAAGTGGGAAATTT [CACACA_site1786]", "gcPBM binding intensity (ln)": "10.6 ± 0.39"}, {"sequence": "TGGTACCTTACTTTTACACACTTTTTTTTTTTTTTT [CACACA_site1557]", "gcPBM binding intensity (ln)": "10.7 ± 0.36"}, {"sequence": "TAAATACAGAAACACACACACAAATATATACATACA [CACACA_site2880]", "gcPBM binding intensity (ln)": "9.975 ± 0.021"}, {"sequence": "AATTCTTTTTTCAACACACACACACTAGAAAATATA [CACACA_site5681]", "gcPBM binding intensity (ln)": "10.3 ± 0.3"}, {"sequence": "TTTATATATTATTAATGTACAAAATTTTTATTGCAT [XGTACX_site3329]", "gcPBM binding intensity (ln)": "10.6 ± 0.38"}, {"sequence": "ACATTAAGACACATTGCACACGTGCACCCATAGAAA [CACACA_site8029]", "gcPBM binding intensity (ln)": "10.7 ± 0.55"}, {"sequence": "ACCTGGACAAAAATAAATAAATAAATAAATAAATGA [GTGCAC_negctrl_site238]", "gcPBM binding intensity (ln)": "10.1 ± 0.35"}, {"sequence": "AAAATCTAATATAATGCACACATAAAAAAAAAATCA [CACACA_site8871]", "gcPBM binding intensity (ln)": "10.1 ± 0.3"}, {"sequence": "TACATCGACCTATGTACATGCAAATTATTTTTATTT [TGCATGCA_site182]", "gcPBM binding intensity (ln)": "11 ± 0.62"}, {"sequence": "TTTTTTTTTTTTTTGGTGCGTTTATATATAAATATA", "gcPBM binding intensity (ln)": "9.94 ± 0.47"}, {"sequence": "GGAATTATATGAAATAAACACACATATGTAATATTA [CACACA_site8586]", "gcPBM binding intensity (ln)": "9.915 ± 0.007"}, {"sequence": "GTCCTTCATCATATTTAACACACAGAGAAAAAGCGG [CACACA_site7979]", "gcPBM binding intensity (ln)": "10.4 ± 0.36"}, {"sequence": "CTTTTAATATGTGTAGTGCATTTTTTTTTTTTTTTT [GTGCAC_site9727]", "gcPBM binding intensity (ln)": "10.4 ± 0.24"}, {"sequence": "AAAAAAAAAAAAAACACACACAACACCCATACCTTA [CACACA_site3621]", "gcPBM binding intensity (ln)": "10.2 ± 0.18"}, {"sequence": "TAAAAGAAATATACATGTACATAAATATATATATAT [XGTACX_site1276]", "gcPBM binding intensity (ln)": "11.3 ± 0.54"}, {"sequence": "GCCCAACCAAAATATACACACAGTTGAATGAATAAA [CACACA_site2597]", "gcPBM binding intensity (ln)": "9.975 ± 0.007"}, {"sequence": "TATATTTGGAAATATTCTCAATTGGTACAAATAAAA [CACACA_negctrl_site1202]", "gcPBM binding intensity (ln)": "10.8 ± 0.53"}, {"sequence": "AATAATAAATTATGGTGTACGCATTTGTATATATAC [XGTACX_site5417]", "gcPBM binding intensity (ln)": "11.7 ± 0.98"}]}]}
